Assay results: publication PMC2727002
No constants are given. Whether binding was seen depends on the method and setting. Binding seen in cells or lysates may run through a third protein. Some results given as binding are weak or reduced against the parent protein; the word gives no strength. Tags and fused reporters may be left off the sequences shown.

Columns and labels:
Tap-tagged Air1 (yeast) = molecular target: T1, Tap-tagged Air1 (yeast) (UniProt P40507); assay: co-IP; Tap-tagged Mtr4 or Tap-tagged Air1, polyclonal antibodies against the Ccr4-Not complex subunits; data not shown
T1 sequence: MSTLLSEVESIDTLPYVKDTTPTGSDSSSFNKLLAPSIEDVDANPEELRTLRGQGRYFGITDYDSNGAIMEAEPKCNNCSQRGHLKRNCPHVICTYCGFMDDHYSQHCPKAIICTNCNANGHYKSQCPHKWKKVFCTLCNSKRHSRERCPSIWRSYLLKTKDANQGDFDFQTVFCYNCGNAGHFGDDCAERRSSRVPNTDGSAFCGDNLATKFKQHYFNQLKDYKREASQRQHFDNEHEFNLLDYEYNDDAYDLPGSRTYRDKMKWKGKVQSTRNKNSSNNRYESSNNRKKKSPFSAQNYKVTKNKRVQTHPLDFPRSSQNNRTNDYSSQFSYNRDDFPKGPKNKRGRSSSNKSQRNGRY

Tap-tagged Mtr4 (yeast) = molecular target: T2, Tap-tagged Mtr4 (yeast) (UniProt P47047); assay: as above
T2 sequence: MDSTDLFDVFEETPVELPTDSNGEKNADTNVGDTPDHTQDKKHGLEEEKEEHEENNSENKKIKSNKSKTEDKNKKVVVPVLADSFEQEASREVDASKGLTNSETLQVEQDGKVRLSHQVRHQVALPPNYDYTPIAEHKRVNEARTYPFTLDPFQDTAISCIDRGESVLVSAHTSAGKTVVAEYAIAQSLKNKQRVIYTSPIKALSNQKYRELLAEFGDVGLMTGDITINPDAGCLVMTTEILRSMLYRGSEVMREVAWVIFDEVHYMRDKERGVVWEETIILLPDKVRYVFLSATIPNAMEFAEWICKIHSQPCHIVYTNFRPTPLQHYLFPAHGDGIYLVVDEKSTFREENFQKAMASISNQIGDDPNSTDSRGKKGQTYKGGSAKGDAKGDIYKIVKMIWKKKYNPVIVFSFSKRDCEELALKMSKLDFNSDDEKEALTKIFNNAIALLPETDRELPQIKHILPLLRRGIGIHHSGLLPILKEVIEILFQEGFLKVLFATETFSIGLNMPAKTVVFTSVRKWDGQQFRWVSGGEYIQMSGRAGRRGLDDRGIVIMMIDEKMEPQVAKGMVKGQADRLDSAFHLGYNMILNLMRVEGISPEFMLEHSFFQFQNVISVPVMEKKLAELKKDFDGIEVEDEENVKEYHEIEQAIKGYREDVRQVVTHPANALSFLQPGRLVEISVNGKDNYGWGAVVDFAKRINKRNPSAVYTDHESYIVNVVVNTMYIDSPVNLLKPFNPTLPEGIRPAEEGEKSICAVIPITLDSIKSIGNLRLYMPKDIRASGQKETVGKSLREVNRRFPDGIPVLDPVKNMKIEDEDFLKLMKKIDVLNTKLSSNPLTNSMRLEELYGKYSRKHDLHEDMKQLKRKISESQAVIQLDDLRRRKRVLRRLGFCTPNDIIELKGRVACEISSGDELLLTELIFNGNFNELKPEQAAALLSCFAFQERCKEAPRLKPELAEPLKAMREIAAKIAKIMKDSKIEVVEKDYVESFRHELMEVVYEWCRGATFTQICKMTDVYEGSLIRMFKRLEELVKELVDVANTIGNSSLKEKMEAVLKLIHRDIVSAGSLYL

Tap-tagged Rrp41 (yeast) [1] = molecular target: T3, Tap-tagged Rrp41 (yeast) (UniProt P46948); assay: co-IP; affinity purification of Tap-tagged Rrp41 from total extracts of not4Δ or caf40Δ cells; purified material blotted with antibodies against Not5 and CBP
T3 sequence: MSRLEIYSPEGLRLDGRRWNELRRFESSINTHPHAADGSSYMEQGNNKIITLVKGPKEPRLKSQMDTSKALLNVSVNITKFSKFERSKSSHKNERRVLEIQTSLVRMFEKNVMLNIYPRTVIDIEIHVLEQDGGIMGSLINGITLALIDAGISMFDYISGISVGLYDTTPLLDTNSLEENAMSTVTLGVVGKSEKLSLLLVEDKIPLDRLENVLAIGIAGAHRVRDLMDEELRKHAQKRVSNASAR

Tap-tagged Rrp41 (yeast) [2] = molecular target: T3, Tap-tagged Rrp41 (yeast); assay: co-IP; tandem affinity purification of Tap-tagged Rrp41 from 2 g of wild-type total extract treated with RNAse A (for Rrp4 and Rrp43: treated or not); eluate blotted with antibodies against CBP, Rrp4, Rrp43 and Not5
Tap-tagged Rrp41 (yeast) [3] = molecular target: T3, Tap-tagged Rrp41 (yeast); assay: condition: only from wild-type cells or the other ccr4-not mutants, extract not treated with RNAse; co-IP; affinity purification of Tap-tagged Rrp41 from extracts of wild-type cells or of the other ccr4-not mutants, not treated with RNAse; blotted with antibodies against Not5 and CBP
Tap-tagged Csl4 (yeast) = molecular target: T4, Tap-tagged Csl4 (yeast) (UniProt P53859); assay: co-IP; 2 mg of extract of cells expressing a Tap-tagged protein incubated overnight at 4°C with protein G magnetic beads with or without antibody against CBP; 40 mM Hepes pH 7.5, 1 mM EDTA, 20% glycerol, 150 mM potassium acetate, 100 mM potassium chloride; wild-type, caf40Δ or not4Δ cells as named; western blot
T4 sequence: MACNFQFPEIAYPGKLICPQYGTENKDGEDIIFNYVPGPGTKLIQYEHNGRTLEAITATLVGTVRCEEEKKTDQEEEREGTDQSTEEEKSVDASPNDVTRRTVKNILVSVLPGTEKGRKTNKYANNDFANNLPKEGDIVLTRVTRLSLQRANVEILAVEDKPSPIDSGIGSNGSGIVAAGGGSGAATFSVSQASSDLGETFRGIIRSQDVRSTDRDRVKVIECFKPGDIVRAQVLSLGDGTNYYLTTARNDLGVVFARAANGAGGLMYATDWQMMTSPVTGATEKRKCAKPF

B1: Not5 (protein, UniProt Q12514 1-560)
chain: MSQRKLQQDIDKLLKKVKEGIEDFDDIYEKFQSTDPSNSSHREKLESDLKREIKKLQKHRDQIKTWLSKEDVKDKQSVLMTNRRLIENGMERFKSVEKLMKTKQFSKEALTNPDIIKDPKELKKRDQVLFIHDCLDELQKQLEQYEAQENEEQTERHEFHIANLENILKKLQNNEMDPEPVEEFQDDIKYYVENNDDPDFIEYDTIYEDMGCEIQPSSSNNEAPKEGNNQTSLSSIRSSKKQERSPKKKAPQRDVSISDRATTPIAPGVESASQSISSTPTPVSTDTPLHTVKDDSIKFDNSTLGTPTTHVSMKKKESENDSEQQLNFPPDRTDEIRKTIQHDVETNAAFQNPLFNDELKYWLDSKRYLMQPLQEMSPKMVSQLESSLLNCPDSLDADSPCLYTKPLSLPHPTSIFFPNEPIRFVYPYDVPLNLTNNENDTDNKFGKDSKAKSKKDDDIYSRTSLARIFMKFDLDTLFFIFYHYQGSYEQFLAARELFKNRNWLFNKVDRCWYYKEIEKLPPGMGKSEEESWRYFDYKKSWLARRCGNDFVYNEEDFEKL
Which binding (Tap-tagged Air1 (yeast)) does the source give for B1 here?
The binding was “binds”.

What about the binding (Tap-tagged Mtr4 (yeast)) of the same binder?
The binding was “binds”.

And the binding (Tap-tagged Rrp41 (yeast) [1])?
The binding was “binds”.

What about the binding (Tap-tagged Rrp41 (yeast) [2]) of the same binder?
The binding was “binds”.

What about the binding (Tap-tagged Rrp41 (yeast) [3]) of the same binder?
The binding was “no binding”.

And the binding (Tap-tagged Csl4 (yeast))?
Its binding is “binds”.
